# According to the supplement of paper PMC10037445:
# ± gives the standard deviation of the averaged measurements. Whole data set: some 2,900 compounds, median “NF-kB SEAP reporter activity, fold change vs agonist alone” near 0.99, cut for the highest 2% near 2.6. The list shows a part of the results.
# Assays:
# RAW-Dual [1] = assay: NF-kB SEAP reporter activity, fold change vs agonist alone; higher = enhanced NF-kB activity; settings: library stock concentration (final ~1000-fold dilution): 10 mM, cytotoxicity flag (confluency mask): not cytotoxic
# In short: (§1)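 Supernatant from RAW-Dual macrophages was read after 20 hours for IRF by QuantiLuc luminescence and for NF-κB by QuantiBlue absorbance at 620 nm. The cells (50,000 cells/well in DMEM, 384-well plates, 37 °C, 5% CO2) had received 50 nL of library stock by pin tool and, 1 h later, a PRR agonist. Reporter activity is expressed relative to agonist-alone wells as fold change, and wells were flagged cytotoxic if IncuCyte confluency was under 70% of agonist controls in both mask sets.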
# RAW-Dual [2] = assay: NF-kB SEAP reporter activity, fold change vs agonist alone; cytotoxicity flag (confluency mask): not cytotoxic; higher = enhanced NF-kB activity
# In short: as §1
# [3] = agonist: ODN 1826 (TLR9) 0.5 ug/mL
# [4] = agonist: Pam2CSK4 (TLR2/6) 0.1 ug/mL
# [5] = agonist: Pam3CSK4 (TLR2/1) 0.1 ug/mL
compound,measurement,setting,value
COCCc1ccc(OCC(O)CNC(C)C)cc1 (centres undefined),NF-kB SEAP reporter activity,RAW-Dual [1]; agonist: MPLA (TLR4) […],1.07
COCCc1ccc(OCC(O)CNC(C)C)cc1 (centres undefined) (library stock concentration (final ~1000-fold dilution): 10 mM),NF-kB SEAP reporter activity,RAW-Dual [2]; agonist: LPS (TLR4) 0.1 ug/mL,1.13
same,NF-kB SEAP reporter activity,RAW-Dual [2]; [3],0.824
same,NF-kB SEAP reporter activity,RAW-Dual [2]; [4],1.11
same,NF-kB SEAP reporter activity,RAW-Dual [2]; [5],0.806
CCN1CCN(Cc2ccc(Nc3ncc(F)c(-c4cc(F)c5nc(C)n(C(C)C)c5c4)n3)nc2)CC1,NF-kB SEAP reporter activity,RAW-Dual [1]; agonist: Imiquimod (TLR7) […],1.63
same,NF-kB SEAP reporter activity,RAW-Dual [1]; agonist: MPLA (TLR4) […],2.06
CCN1CCN(Cc2ccc(Nc3ncc(F)c(-c4cc(F)c5nc(C)n(C(C)C)c5c4)n3)nc2)CC1 (library stock concentration (final ~1000-fold dilution): 10 mM),NF-kB SEAP reporter activity,RAW-Dual [2]; agonist: LPS (TLR4) 0.1 ug/mL,1.78
same,NF-kB SEAP reporter activity,RAW-Dual [2]; [3],0.371
same,NF-kB SEAP reporter activity,RAW-Dual [2]; [4],0.966
same,NF-kB SEAP reporter activity,RAW-Dual [2]; [5],0.915
N#Cc1ccc(COCC2OC(n3c(NCc4ccc(Cl)c(Cl)c4)nc4c(N)ncnc43)C(O)C2O)cc1 (centres undefined),NF-kB SEAP reporter activity,RAW-Dual [1]; agonist: Imiquimod (TLR7) […],0.762
same,NF-kB SEAP reporter activity,RAW-Dual [1]; agonist: MPLA (TLR4) […],0.966
N#Cc1ccc(COCC2OC(n3c(NCc4ccc(Cl)c(Cl)c4)nc4c(N)ncnc43)C(O)C2O)cc1 (centres undefined) (library stock concentration (final ~1000-fold dilution): 10 mM),NF-kB SEAP reporter activity,RAW-Dual [2]; agonist: LPS (TLR4) 0.1 ug/mL,0.934
same,NF-kB SEAP reporter activity,RAW-Dual [2]; [3],1.01
same,NF-kB SEAP reporter activity,RAW-Dual [2]; [4],0.742
same,NF-kB SEAP reporter activity,RAW-Dual [2]; [5],0.944
CC1OC(OC2C(=O)c3c(O)cc(O)cc3OC2c2ccc(O)cc2)C(O)C(O)C1O (centres undefined) (library stock concentration (final ~1000-fold dilution): 10 mM),NF-kB SEAP reporter activity,RAW-Dual [2]; agonist: LPS (TLR4) 0.1 ug/mL,1.09 ± 0.015
same,NF-kB SEAP reporter activity,RAW-Dual [2]; [3],0.9919 ± 0.0043
same,NF-kB SEAP reporter activity,RAW-Dual [2]; [4],1.06 ± 0.064
same,NF-kB SEAP reporter activity,RAW-Dual [2]; [5],1.39 ± 0.41
CC1OC(OC2C(=O)c3c(O)cc(O)cc3OC2c2ccc(O)cc2)C(O)C(O)C1O (centres undefined),NF-kB SEAP reporter activity,RAW-Dual [1]; agonist: Imiquimod (TLR7) […],1.03 ± 0.025
same,NF-kB SEAP reporter activity,RAW-Dual [1]; agonist: MPLA (TLR4) […],1.04 ± 0.041
CC(C)=CCC(O)C1=CC(=O)c2c(O)ccc(O)c2C1=O (centres undefined) (library stock concentration (final ~1000-fold dilution): 10 mM),NF-kB SEAP reporter activity,RAW-Dual [2]; agonist: LPS (TLR4) 0.1 ug/mL,0.34
same,NF-kB SEAP reporter activity,RAW-Dual [2]; [3],0.199
same,NF-kB SEAP reporter activity,RAW-Dual [2]; [4],0.0927
same,NF-kB SEAP reporter activity,RAW-Dual [2]; [5],0.256
CC(C)=CCC(O)C1=CC(=O)c2c(O)ccc(O)c2C1=O (centres undefined),NF-kB SEAP reporter activity,RAW-Dual [1]; agonist: Imiquimod (TLR7) […],0.16
same,NF-kB SEAP reporter activity,RAW-Dual [1]; agonist: MPLA (TLR4) […],0.285
COc1ccc2c(c1)C(C(=O)N(Cc1ccc(N(C)C)cc1)c1ccc(C(C)C)cc1)CCC2 (centres undefined) (library stock concentration (final ~1000-fold dilution): 10 mM),NF-kB SEAP reporter activity,RAW-Dual [2]; agonist: LPS (TLR4) 0.1 ug/mL,1.17
same,NF-kB SEAP reporter activity,RAW-Dual [2]; [3],0.295
same,NF-kB SEAP reporter activity,RAW-Dual [2]; [4],0.481
same,NF-kB SEAP reporter activity,RAW-Dual [2]; [5],0.7
COc1ccc2c(c1)C(C(=O)N(Cc1ccc(N(C)C)cc1)c1ccc(C(C)C)cc1)CCC2 (centres undefined),NF-kB SEAP reporter activity,RAW-Dual [1]; agonist: Imiquimod (TLR7) […],0.833
same,NF-kB SEAP reporter activity,RAW-Dual [1]; agonist: MPLA (TLR4) […],1.04
CC1CCCC(C)N1 (centres undefined),NF-kB SEAP reporter activity,RAW-Dual [1]; agonist: MPLA (TLR4) […],1.12
CC1CCCC(C)N1 (centres undefined) (library stock concentration (final ~1000-fold dilution): 10 mM),NF-kB SEAP reporter activity,RAW-Dual [2]; agonist: LPS (TLR4) 0.1 ug/mL,0.971
same,NF-kB SEAP reporter activity,RAW-Dual [2]; [3],0.981
same,NF-kB SEAP reporter activity,RAW-Dual [2]; [4],1.06
same,NF-kB SEAP reporter activity,RAW-Dual [2]; [5],0.932
O=C(O)CCCN1CCC(OC(c2ccc(Cl)cc2)c2ccccn2)CC1.O=S(=O)(O)c1ccccc1 (centres undefined) (library stock concentration (final ~1000-fold dilution): 10 mM),NF-kB SEAP reporter activity,RAW-Dual [2]; agonist: LPS (TLR4) 0.1 ug/mL,1.04
same,NF-kB SEAP reporter activity,RAW-Dual [2]; [3],1.06
same,NF-kB SEAP reporter activity,RAW-Dual [2]; [4],1.01
same,NF-kB SEAP reporter activity,RAW-Dual [2]; [5],1.17
O=C(O)CCCN1CCC(OC(c2ccc(Cl)cc2)c2ccccn2)CC1.O=S(=O)(O)c1ccccc1 (centres undefined),NF-kB SEAP reporter activity,RAW-Dual [1]; agonist: Imiquimod (TLR7) […],1.08
same,NF-kB SEAP reporter activity,RAW-Dual [1]; agonist: MPLA (TLR4) […],1.03
CCOC(=O)C(CCc1ccccc1)NC(C)C(=O)N1Cc2cc(OC)c(OC)cc2CC1C(=O)O.Cl (centres undefined),NF-kB SEAP reporter activity,RAW-Dual [1]; agonist: Imiquimod (TLR7) […],0.953
same,NF-kB SEAP reporter activity,RAW-Dual [1]; agonist: MPLA (TLR4) […],1.04
CCOC(=O)C(CCc1ccccc1)NC(C)C(=O)N1Cc2cc(OC)c(OC)cc2CC1C(=O)O.Cl (centres undefined) (library stock concentration (final ~1000-fold dilution): 10 mM),NF-kB SEAP reporter activity,RAW-Dual [2]; agonist: LPS (TLR4) 0.1 ug/mL,0.91
same,NF-kB SEAP reporter activity,RAW-Dual [2]; [3],1.01
same,NF-kB SEAP reporter activity,RAW-Dual [2]; [4],1.04
same,NF-kB SEAP reporter activity,RAW-Dual [2]; [5],1.06
O.c1cnc2c(c1)ccc1cccnc12,NF-kB SEAP reporter activity,RAW-Dual [1]; agonist: Imiquimod (TLR7) […],2.78
same,NF-kB SEAP reporter activity,RAW-Dual [1]; agonist: MPLA (TLR4) […],2.1
